# Substitutions are numbered along the chain they refer to; changes in the protein carry UniProt numbers. The list shows a part of the results.
# T1: RBFOX1 RRM (Homo sapiens, UniProt Q9NWB1 109-208)
# T1 sequence: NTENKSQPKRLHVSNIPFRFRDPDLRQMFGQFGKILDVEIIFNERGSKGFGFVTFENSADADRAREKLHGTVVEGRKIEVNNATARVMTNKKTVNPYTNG
# B1: ACGAGUA (DNA:RNA)
# RNA: GGGAGACCGGAAUUCAGAUUGUCCACGAGUAUUAAAUCCCGUCGUAGCCACCA
# DNA 1: CAATCTGAATTCCGGTCTCCC
# DNA 2: TGGTGGCTACGACGGGATT
# B2: GCCAGGG (DNA:RNA)
# RNA: B1 RNA with A25G, G27C, U30G, A31G
# DNA 1: CAATCTGAATTCCGGTCTCCC
# DNA 2: TGGTGGCTACGACGGGATT
# B3: UGGGAGC (DNA:RNA)
# RNA: B1 RNA with A25U, C26G, A28G, G29A, U30G, A31C
# DNA 1: CAATCTGAATTCCGGTCTCCC
# DNA 2: TGGTGGCTACGACGGGATT
# B4: UUAGAAC (DNA:RNA)
# RNA: GGGAGACCGGAAUUCAGAUUGUCCUUAGAACUUAAAUCCCGUCGUAGCCACCA
# DNA 1: CAATCTGAATTCCGGTCTCCC
# DNA 2: TGGTGGCTACGACGGGATT
# B5: CUAACAU (DNA:RNA)
# RNA: B4 RNA with U25C, G28A, A29C, C31U
# DNA 1: CAATCTGAATTCCGGTCTCCC
# DNA 2: TGGTGGCTACGACGGGATT
# B6: GCCGCUC (DNA:RNA)
# RNA: B1 RNA with A25G, G27C, A28G, G29C, A31C
# DNA 1: CAATCTGAATTCCGGTCTCCC
# DNA 2: TGGTGGCTACGACGGGATT
# B7: GGGAUUA (DNA:RNA)
# RNA: B1 RNA with A25G, C26G, G29U
# DNA 1: CAATCTGAATTCCGGTCTCCC
# DNA 2: TGGTGGCTACGACGGGATT
# B8: GAGCCCU (DNA:RNA)
# RNA: B1 RNA with A25G, C26A, A28C, G29C, U30C, A31U
# DNA 1: CAATCTGAATTCCGGTCTCCC
# DNA 2: TGGTGGCTACGACGGGATT
# B9: GCCAUGA (DNA:RNA)
# RNA: B1 RNA with A25G, G27C, G29U, U30G
# DNA 1: CAATCTGAATTCCGGTCTCCC
# DNA 2: TGGTGGCTACGACGGGATT
# B10: AGGACUC (DNA:RNA)
# RNA: B1 RNA with C26G, G29C, A31C
# DNA 1: CAATCTGAATTCCGGTCTCCC
# DNA 2: TGGTGGCTACGACGGGATT
# B11: UUCCAUG (DNA:RNA)
# RNA: B4 RNA with A27C, G28C, A30U, C31G
# DNA 1: CAATCTGAATTCCGGTCTCCC
# DNA 2: TGGTGGCTACGACGGGATT
# B12: ACGCAUC (DNA:RNA)
# RNA: B1 RNA with A28C, G29A, A31C
# DNA 1: CAATCTGAATTCCGGTCTCCC
# DNA 2: TGGTGGCTACGACGGGATT
# B13: CGGUUCG (DNA:RNA)
# RNA: B1 RNA with A25C, C26G, A28U, G29U, U30C, A31G
# DNA 1: CAATCTGAATTCCGGTCTCCC
# DNA 2: TGGTGGCTACGACGGGATT
# B14: ACCCUCG (DNA:RNA)
# RNA: B1 RNA with G27C, A28C, G29U, U30C, A31G
# DNA 1: CAATCTGAATTCCGGTCTCCC
# DNA 2: TGGTGGCTACGACGGGATT
# B15: GCUGAGG (DNA:RNA)
# RNA: B4 RNA with U25G, U26C, A27U, A30G, C31G
# DNA 1: CAATCTGAATTCCGGTCTCCC
# DNA 2: TGGTGGCTACGACGGGATT
# B16: UCACGCC (DNA:RNA)
# RNA: B4 RNA with U26C, G28C, A29G, A30C
# DNA 1: CAATCTGAATTCCGGTCTCCC
# DNA 2: TGGTGGCTACGACGGGATT
# B17: GACCCCA (DNA:RNA)
# RNA: B1 RNA with A25G, C26A, G27C, A28C, G29C, U30C
# DNA 1: CAATCTGAATTCCGGTCTCCC
# DNA 2: TGGTGGCTACGACGGGATT
# B18: AGUUAAC (DNA:RNA)
# RNA: B4 RNA with U25A, U26G, A27U, G28U
# DNA 1: CAATCTGAATTCCGGTCTCCC
# DNA 2: TGGTGGCTACGACGGGATT
# B19: CUAUCCA (DNA:RNA)
# RNA: B4 RNA with U25C, G28U, A29C, A30C, C31A
# DNA 1: CAATCTGAATTCCGGTCTCCC
# DNA 2: TGGTGGCTACGACGGGATT
# B20: AGCUCCU (DNA:RNA)
# RNA: B1 RNA with C26G, G27C, A28U, G29C, U30C, A31U
# DNA 1: CAATCTGAATTCCGGTCTCCC
# DNA 2: TGGTGGCTACGACGGGATT
# B21: UGCUUCU (DNA:RNA)
# RNA: B4 RNA with U26G, A27C, G28U, A29U, A30C, C31U
# DNA 1: CAATCTGAATTCCGGTCTCCC
# DNA 2: TGGTGGCTACGACGGGATT
# B22: GUGGACG (DNA:RNA)
# RNA: B4 RNA with U25G, A27G, A30C, C31G
# DNA 1: CAATCTGAATTCCGGTCTCCC
# DNA 2: TGGTGGCTACGACGGGATT
# B23: UAACUUC (DNA:RNA)
# RNA: B4 RNA with U26A, G28C, A29U, A30U
# DNA 1: CAATCTGAATTCCGGTCTCCC
# DNA 2: TGGTGGCTACGACGGGATT
# B24: UCCAUAU (DNA:RNA)
# RNA: B1 RNA with A25U, G27C, G29U, U30A, A31U
# DNA 1: CAATCTGAATTCCGGTCTCCC
# DNA 2: TGGTGGCTACGACGGGATT
# B25: GUUUAUA (DNA:RNA)
# RNA: B1 RNA with A25G, C26U, G27U, A28U, G29A
# DNA 1: CAATCTGAATTCCGGTCTCCC
# DNA 2: TGGTGGCTACGACGGGATT
# B26: UUCCUUU (DNA:RNA)
# RNA: B4 RNA with A27C, G28C, A29U, A30U, C31U
# DNA 1: CAATCTGAATTCCGGTCTCCC
# DNA 2: TGGTGGCTACGACGGGATT
# B27: GGGAUCU (DNA:RNA)
# RNA: B1 RNA with A25G, C26G, G29U, U30C, A31U
# DNA 1: CAATCTGAATTCCGGTCTCCC
# DNA 2: TGGTGGCTACGACGGGATT
# B28: CUGAAUC (DNA:RNA)
# RNA: B1 RNA with A25C, C26U, G29A, A31C
# DNA 1: CAATCTGAATTCCGGTCTCCC
# DNA 2: TGGTGGCTACGACGGGATT
# B29: CACAUGU (DNA:RNA)
# RNA: B1 RNA with A25C, C26A, G27C, G29U, U30G, A31U
# DNA 1: CAATCTGAATTCCGGTCTCCC
# DNA 2: TGGTGGCTACGACGGGATT
# B30: UGCAGUU (DNA:RNA)
# RNA: B1 RNA with A25U, C26G, G27C, A31U
# DNA 1: CAATCTGAATTCCGGTCTCCC
# DNA 2: TGGTGGCTACGACGGGATT
# B31: CGAUGCC (DNA:RNA)
# RNA: B4 RNA with U25C, U26G, G28U, A29G, A30C
# DNA 1: CAATCTGAATTCCGGTCTCCC
# DNA 2: TGGTGGCTACGACGGGATT
# Molecular target: T1, RBFOX1 RRM
# Assay: EMSA; HiTS-Eq, 1 nM pool, 10 min; buffer printed only for the single-RNA assays: 10 mM Tris pH 7.5, 150 mM NaCl, 3.4 mM EDTA, 0.001% NP-40, 30 C
# Details: tags: His6 N-terminal (pET28a); label: 5' 32P
# In short: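 Purified wild-type or mutant RbFox RRM at increasing concentrations was equilibrated with 1 nM of 5′-radiolabelled RNA carrying 7 randomized nucleotides for 10 min in 50 µL. Unbound RNA was separated by 8% native PAGE and sequenced. Relative association constants came from read-count changes of each RNA species compared with the control reaction, normalised to the cognate motif.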
row,Binder,binding signal
1,B1,0.00569 KA relative to UGCAUGU
2,B2,0.0174 KA relative to UGCAUGU
3,B3,0.0309 KA relative to UGCAUGU
4,B4,0.012 KA relative to UGCAUGU
5,B5,0.000928 KA relative to UGCAUGU
6,B6,0.0146 KA relative to UGCAUGU
7,B7,0.0242 KA relative to UGCAUGU
8,B8,0.00817 KA relative to UGCAUGU
9,B9,0.0124 KA relative to UGCAUGU
10,B10,0.0201 KA relative to UGCAUGU
11,B11,0.00664 KA relative to UGCAUGU
12,B12,0.00881 KA relative to UGCAUGU
13,B13,0.0103 KA relative to UGCAUGU
14,B14,0.00252 KA relative to UGCAUGU
15,B15,0.0179 KA relative to UGCAUGU
16,B16,0.00712 KA relative to UGCAUGU

row,Binder,binding signal
1,B17,0.000227 KA relative to UGCAUGU
2,B18,0.00286 KA relative to UGCAUGU
3,B19,0.00102 KA relative to UGCAUGU
4,B20,0.00379 KA relative to UGCAUGU
5,B21,0.0153 KA relative to UGCAUGU
6,B22,0.0135 KA relative to UGCAUGU
7,B23,0.0101 KA relative to UGCAUGU
8,B24,0.00233 KA relative to UGCAUGU
9,B25,0.00641 KA relative to UGCAUGU
10,B26,0.00799 KA relative to UGCAUGU
11,B27,0.0381 KA relative to UGCAUGU
12,B28,0.00905 KA relative to UGCAUGU
13,B29,0.00636 KA relative to UGCAUGU
14,B30,0.0159 KA relative to UGCAUGU
15,B31,0.012 KA relative to UGCAUGU
